In patent US20260139049A1 (published 2026):

T1: mouse CLDN6 (mouse, UniProt Q9Z262 1-219)
T1 chain: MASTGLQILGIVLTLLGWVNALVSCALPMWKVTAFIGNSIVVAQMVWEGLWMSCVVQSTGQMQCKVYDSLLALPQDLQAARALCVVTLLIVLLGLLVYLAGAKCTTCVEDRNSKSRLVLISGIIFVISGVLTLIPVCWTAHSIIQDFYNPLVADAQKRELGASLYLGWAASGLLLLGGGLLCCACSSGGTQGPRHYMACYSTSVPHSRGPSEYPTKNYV

T2: monkey CLDN6 (Cyno CLDN6) (monkey (Cyno))
T2 chain: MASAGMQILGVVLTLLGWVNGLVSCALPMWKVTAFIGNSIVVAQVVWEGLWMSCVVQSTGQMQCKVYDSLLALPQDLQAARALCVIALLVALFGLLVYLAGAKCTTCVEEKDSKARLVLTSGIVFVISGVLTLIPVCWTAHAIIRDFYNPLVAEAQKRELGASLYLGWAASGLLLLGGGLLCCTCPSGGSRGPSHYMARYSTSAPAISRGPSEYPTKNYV


Assays:
[1] = biological target: T1, mouse CLDN6; test: FACS
[2] = biological target: T2, monkey CLDN6 (Cyno CLDN6); test: FACS

| EC50 [1] [µg/mL] | EC50 [2] [µg/mL] | Binder |
| --- | --- | --- |
| 7.76 | 1.16 | PiH2008 (antibody) heavy: QVQLVQSGAEVKKPGASVKVSCKASGYTFTDYNMHWVRQAPGQSLEWIGYINPNNGATNYNQKFKGRATITVDKSASTAYMELSSLRSEDTAVYNCARWDGYVYYYGMDYWGQGTLVTVSS[human IgG1 constant region not spelt out] light: DIQMTQSPSSLSASVGGRVTITCKASDHINNWLAWYQQKPGKAPKLLISGATSLETGVPSRFSGSGSGTDYTFTISSLQPEDIATYYCQQYWNTPYTFGGGTKLEIKRTVAAPSVFIFPPSDEQLKSGTASVVCLLNNFYPREAKVQWKVDNALQSGNSQESVTEQDSKDSTYSLSSTLTLSKADYEKHKVYACEVTHQGLSSPVTKSFNRGEC |
| 19 | 1.32 | PiH2004 (antibody) heavy: QVQLVQSGAEVKKPGASVKVSCKASGYTFTDYNMHWVRQAPGQSLEWIGYINPNNGATNYNQKFKGRATITVDKSASTAYMELSSLRSEDTAVYNCARWDGYVYYYGMDYWGQGTLVTVSS[human IgG1 constant region not spelt out] light: DIQMTQSPSSLSASVGDRVTITCKASDHINNWLAWYQQKPGKAPKLLISGATSLETGVPSRFSGSGSGTDYTFTISSLQPEDIATYYCQQYWNTPYTFGGGTKLEIKRTVAAPSVFIFPPSDEQLKSGTASVVCLLNNFYPREAKVQWKVDNALQSGNSQESVTEQDSKDSTYSLSSTLTLSKADYEKHKVYACEVTHQGLSSPVTKSFNRGEC |
